About 530 (0.13%) of roughly 410,000 compounds were called active. The inconclusive results got no clear call from the source; some entries with a clear call stand among them for comparison. Calls follow the shape of the dose curve; as a rule, active = well fitted inhibition curve with a large enough effect; inconclusive = small, poorly fitted or top-dose-only effect, or another doubt; inactive = no such curve, though single readings can be large or run the other way. Potencies of inconclusive entries are doubtful fits and often do not repeat.
Assay: qHTS of GLP-1 Receptor Inverse Agonists: Cytotox Screen
Conditions: HEK293 cAMP-luciferase reporter cells, luminescence, 24 h; series mostly up to 38.3 µM
In short: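 Luminescence readout: signal drop marks cytotoxicity. Plated cells grew 12 h at 37 °C, 5% CO2, received 23 nL compound for 24 h, then got luciferase reagent, read after 12 min at RT.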
Potency is read from the fitted curve at half-maximal effect.

Compound | Potency
COc1cc2c(c(OC)c1OC)-c1ccc(N(C)CC(OC)OC)c(=O)cc1[C@@H](NC(C)=O)CC2 | inconclusive: 1.12 µM [inhibitor, full curve, poor fit]
Cc1cc(NC(=O)CSc2nc(C3CC3)nc3sc(C)c(C)c23)no1 | inconclusive: 6.31 µM [inhibitor, full curve, poor fit]
CCOC(=O)C1(N(CC)CC)Sc2cc(C)ccc2NC1=O (configuration not stated) | inconclusive: 10 µM [inhibitor, partial curve]
COC(=O)c1sccc1S(=O)(=O)N1CCN(c2cc(Cl)ccc2C)CC1 | inactive
Cc1cc(C(=O)CSc2nnc(N)s2)c(C)n1Cc1cccs1 | inactive
Cc1cc(N2CCOCC2)nc2ccc(NC(=S)NCCN(C)C)cc12 | inconclusive: 22.4 µM [inhibitor, single point]
CCOC(=O)C1(CC2CC2)CCN(S(=O)(=O)C[C@]23CC[C@H](CC2=O)C3(C)C)CC1 | inactive
COc1ccc(CC(=O)Nc2sc3c(c2C(=O)Nc2cccc(Cl)c2)CCCCC3)cc1 | inconclusive: 22.4 µM [inhibitor, partial curve, poor fit]
O=C(CS(=O)(=O)c1ccccc1)c1cc2cc(F)ccc2oc1=O | inactive
CCOc1cc(CN2CCC(CO)(Cc3cccc(C(F)(F)F)c3)CC2)ccc1OC | inconclusive: 14.1 µM [inhibitor, single point]
COc1cc(C2Nc3cccc4cccc(c34)N2)ccc1OC(C)=O | inconclusive: 31.6 µM [inhibitor, single point]
COc1cc(NC(=O)COc2ccccc2[N+](=O)[O-])ccc1NC(=O)c1ccco1 | inconclusive: 28.2 µM [inhibitor, single point]
CCn1ccc(C(=O)N2CCOCC2)n1 | inconclusive: 28.2 µM [inhibitor, single point]
C=CCn1c(O)c(N=NC(=S)Nc2cccc(OC)c2)c2ccccc21 | inconclusive: 1.41 µM [inhibitor, full curve, poor fit]
CC(C)(c1ccccc1)c1ccc(OCCCNCCO)cc1 | inconclusive: 28.2 µM [inhibitor, single point]
COc1cccc(-c2nc(CS(=O)(=O)CC(=O)N3CCc4ccccc4C3)c(C)o2)c1 | inactive
CC(C)(C)CC(=O)NC(=S)Nc1ccccc1C(F)(F)F | inconclusive: 10 µM [inhibitor, single point]
CC(C)(CNC(=O)c1ccc([N+](=O)[O-])c(Cl)c1)CNC(=O)c1ccc([N+](=O)[O-])c(Cl)c1 | inconclusive: 14.1 µM [inhibitor, single point]
CCOc1cc2[nH]c(=O)n(Cc3ccccc3)c(=O)c2cc1OCC | inactive
O=C(Nc1c(C(=O)N2CCN(c3ccccc3)CC2)oc2ccccc12)c1ccc(Br)o1 | inactive
C=CC(=O)N1C/C(=C/c2ccc(F)cc2)C(=O)/C(=C\c2ccc(F)cc2)C1 | inconclusive: 1.78 µM [inhibitor, full curve, poor fit]
CC(C)(C)c1nnc(N/N=C/c2cc(Br)ccc2O)n(N)c1=O | inconclusive: 3.16 µM [inhibitor, full curve, poor fit]
CC(=O)Nc1cccc(-c2cc(NC(C)=O)c3ncc(-c4cccc(C(F)(F)F)c4)n3c2)c1 | inconclusive: 28.2 µM [inhibitor, single point]

Compound | Potency
COc1ccc(NS(=O)(=O)c2ccc(C)c(C(=O)NCc3ccccc3CN3CCCC3)c2)cc1 | inconclusive: 22.4 µM [inhibitor, single point]
O=C1CCCC2=C1C(c1ccc(O)c(O)c1)Nc1ccc3ncccc3c12 (configuration not stated) | inconclusive: 31.6 µM [inhibitor, single point]
Cn1c(=O)oc2cc(S(=O)(=O)N3CCCC(C(=O)NCCc4ccc(Cl)cc4)C3)ccc21 (configuration not stated) | inactive
O=C1N[C@@H](Cc2c[nH]c3ccccc23)COC(=O)[C@@H](Cc2ccc(F)cc2)C/C=C\C[C@H]1CC(=O)N(CCO)Cc1ccccc1 | inconclusive: 28.2 µM [inhibitor, single point]
COc1ccc(CNC(=O)Cn2cncn2)cc1OC | inconclusive: 28.2 µM [inhibitor, single point]
Cc1ccc(C2=NNC(=Nc3ccc(F)cc3)SC2)cc1 | inconclusive: 14.1 µM [inhibitor, single point]
COc1ccc(NC(=S)NCCCN2CCN(C3CCCCC3)CC2)cc1 | inconclusive: 14.1 µM [inhibitor, partial curve, poor fit]
Cc1noc(C)c1S(=O)(=O)Nc1ccc2c(c1)C(=O)N([C@H](C)CO)C[C@H](C)[C@@H](CN(C)S(=O)(=O)c1ccccc1)O2 | inconclusive: 0.447 µM [inhibitor, full curve, poor fit]
Cc1ccc(C(=O)Oc2ccc(Cl)c3cccnc23)cc1[N+](=O)[O-] | inconclusive: 2.51 µM [inhibitor, full curve, poor fit]
FC(F)(F)c1ccc(CSc2nccn2-c2ccccc2)cc1 | inactive
CSc1ccccc1NC(=O)CN(C)CC(=O)NCC(=O)Nc1ccc(F)cc1 | inactive
CCOC(=O)C1CCN(c2c(C(=O)c3ccc(OC)cc3)cnc3ccccc23)CC1 | inactive
COc1cccc(C2=CC(=O)C[C@H](c3ccc(Cl)cc3)C2)c1OC | inactive
O=C(CSc1ccccc1)Nc1nc2ccccc2[nH]1 | inconclusive: 12.6 µM [inhibitor, partial curve, poor fit]
CCC12C(=O)C(CC)(C(c3ccccc3)=C1c1ccccc1)[C@@H]1C(=O)N(c3ccccc3)C(=O)C12 (some centres not stated) | inactive
CN(c1ccccc1)S(=O)(=O)c1nnc(NC(=O)COc2ccccc2)s1 | inactive
CC(=O)N1CCC2(CC1)CC(=O)c1cc(OCC(=O)NCc3ccc(C)cc3)ccc1O2 | inactive
CCC(C)c1ccc(OCc2ccc(C(=O)O)o2)cc1 (configuration not stated) | inactive
Cc1cccc(C(=O)c2c(N)sc3c2CCC(C)C3)c1 (configuration not stated) | inconclusive: 28.2 µM [inhibitor, single point]
C/C(CC(=O)Nc1ccc(Cl)c(Cl)c1)=N\NC(N)=S | inconclusive: 11.2 µM [inhibitor, partial curve, poor fit]
COc1cc(CC(=O)OCC(=O)Nc2sccc2C(N)=O)cc(OC)c1OC | inactive
C/C(=N\NC(=O)COc1ccc2ccccc2c1)c1cccs1 | inconclusive: 28.2 µM [inhibitor, single point]
CCOC(=O)C1CCN(C(=O)c2cccc(Cl)c2)CC1 | inactive

Compound | Potency
CC1(C(=O)NCc2ccc(F)c(F)c2)Cc2c(-c3cccc(C(N)=O)c3)ccnc2O1 (configuration not stated) | inconclusive: 10 µM [inhibitor, single point]
O=C1C=CC(=O)N1CCNc1ncc(C(F)(F)F)cc1Cl | inconclusive: 12.6 µM [inhibitor, single point]
CCn1c(C)c(C)c2cc(C(=O)NCc3ccc(OC(C)C)cc3)ccc21 | inactive
O=C(Nc1ccc2c(c1)N(S(=O)(=O)c1cccs1)CCC2)c1c(F)cccc1F | inactive
Cc1nc(SCC(=O)Nc2ccc(CN3CCCC3)cc2)c2c(C)c(C)sc2n1 | inconclusive: 28.2 µM [inhibitor, single point]
CCC(=O)c1ccc(OCc2ccc(C(=O)c3ccccc3)cc2)cc1 | inactive
CCn1c2ccccc2nc2cc3c(cc21)c(Cl)c(=O)c1ccccc13 | inconclusive: 11.2 µM [inhibitor, partial curve, poor fit]
Cc1ccccc1C(=O)NNC(=O)/C=C\C(=O)O | inconclusive: 12.6 µM [inhibitor, single point]
COc1cc(-c2nc(-c3ccccn3)no2)cc(OC)c1OC | inactive
c1csc(-c2csc3nc(CN4CCOCC4)nc(NCc4ccc5c(c4)OCO5)c23)c1 | inconclusive: 11.2 µM [inhibitor, single point]
COc1ccc(C2=CC3=C(Br)C(=O)C(C)(OC(=O)C4CCCC4)C(=O)C3=CO2)cc1 (configuration not stated) | inconclusive: 0.501 µM [inhibitor, full curve, poor fit]
OC(c1ccccc1)(c1ccccc1)C1CCN(CCCOc2ccccc2Cl)CC1 | inconclusive: 20 µM [inhibitor, single point]
COc1ccc(Oc2c(Cl)cnn(-c3ccc(F)cc3)c2=O)cc1 | inconclusive: 28.2 µM [inhibitor, single point]
Cc1nn(Cc2ccccc2)c(Cl)c1/C=N/NC(=O)CNc1cccc(C(F)(F)F)c1 | inconclusive: 11.2 µM [inhibitor, partial curve]
CCc1nc2ccc(C(=O)Nc3cc(-c4ccccc4)ccc3OC)cn2c1N(C)Cc1nccs1 | inconclusive: 31.6 µM [inhibitor, single point]
Cc1cccc(NC(=S)Nc2ccc(N3CCOCC3)cc2)c1C | inconclusive: 3.55 µM [inhibitor, partial curve, poor fit]
C/C=C/c1ccc(OCC(O)CNCCc2ccc(OC)cc2)c(OC)c1 (configuration not stated) | inconclusive: 28.2 µM [inhibitor, single point]
OCC1(CCc2ccccc2)CCCN(CCCc2ccccc2)C1 (configuration not stated) | inactive
O=C(NNc1cc(Cl)ccc1Cl)c1cccs1 | inconclusive: 10 µM [inhibitor, partial curve]
COc1cc(OC)c2c(-c3cccc(-c4sccc4C(C)=O)c3)cc(=O)oc2c1 | inconclusive: 1.12 µM [inhibitor, full curve, poor fit]
CSc1ccccc1NC(=S)Nc1cc(C)cc(C)c1 | inconclusive: 28.2 µM [inhibitor, single point]
